Measurements: PubChem BioAssay AID1476 (National Center for Advancing Translational Sciences (NCATS), 2009)
Hit rate of the full screen: of about 200,000 compounds, about 4,500 (2.2%) were called active. The inconclusive results got no clear call from the source; some entries with a clear call stand among them for comparison. Calls follow the shape of the dose curve; as a rule, active = well fitted inhibition curve with a large enough effect; inconclusive = small, poorly fitted or top-dose-only effect, or effect the other way; inactive = flat fitted curve, though single readings scatter. Potencies beside an inconclusive call are fits to weak or partial responses and may not hold up.

biological target: Cruzipain (Trypanosoma cruzi) (UniProt P25779); assay: qHTS Assay for Promiscuous and Specific Inhibitors of Cruzain (without detergent); details: purified cruzain, Z-FR-AMC fluorescence, no detergent; also: nearly all actives have a fitted effect of over 40% in size;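 as to max response, negative = inhibition: plate controls were enzyme without inhibitor for no effect and buffer without enzyme for full effect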
Summary of the method: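 Purified cruzain at 1.5 nM, pre-incubated 15 min with compound at room temperature in 100 mM sodium acetate pH 5.5, 5 mM DTT, 0.00005% Triton X-100. Reaction started with 2 uM Z-FR-AMC; AMC fluorescence increase over 60 s gives rate.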
Potency is read from the fitted curve at half-maximal effect; tags tell the direction and shape of the fitted curve.

Sequence of UniProt P25779 (P25779 whole entry, looked up): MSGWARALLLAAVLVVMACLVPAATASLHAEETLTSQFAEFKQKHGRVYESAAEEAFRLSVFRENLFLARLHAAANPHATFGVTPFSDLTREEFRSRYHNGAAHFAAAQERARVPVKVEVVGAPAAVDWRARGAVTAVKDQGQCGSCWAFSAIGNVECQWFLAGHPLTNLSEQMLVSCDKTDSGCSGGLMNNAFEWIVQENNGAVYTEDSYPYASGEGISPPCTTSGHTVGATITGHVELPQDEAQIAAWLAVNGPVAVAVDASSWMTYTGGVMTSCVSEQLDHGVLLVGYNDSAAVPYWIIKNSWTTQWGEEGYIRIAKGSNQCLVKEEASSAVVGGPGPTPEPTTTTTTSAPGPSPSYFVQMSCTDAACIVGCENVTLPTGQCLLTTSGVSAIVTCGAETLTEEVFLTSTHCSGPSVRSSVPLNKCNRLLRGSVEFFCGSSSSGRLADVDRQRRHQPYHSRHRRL

SMILES | Potency | max response, negative = inhibition
Cc1cc(C)cc(NC(=O)CSc2nc(N)c(NC(=O)c3cccs3)c(=O)[nH]2)c1 | inconclusive: 39.8 µM [inhibitor, single point] | 
Cc1ccc(CN2CN(S(=O)(=O)c3cccs3)c3nc4ccccc4nc32)cc1 | inconclusive: 39.8 µM [inhibitor, single point] | 
COc1ccc(NC(=O)Cn2ccn(-c3ccc(F)c(F)c3)c(=O)c2=O)cc1Cl | inconclusive: 25.1 µM [activator, partial curve] | 
CC1=NNC(=O)/C1=C\c1cn(-c2ccccc2)nc1-c1ccc(Cl)cc1 | inconclusive: 31.6 µM [activator, single point] | 
Cc1oc2ccc(OCc3ccccc3F)cc2c1C(=O)O | inconclusive: 39.8 µM [inhibitor, single point] | 
COc1ccc(Oc2ncc3nc(-c4ccccc4)c(=O)n(CCC#N)c3n2)cc1 |  | inactive: -19.2%
C/C(CC(=O)NCC(C)C)=N\NC(=O)COc1cc(C)c(Br)cc1Br | inconclusive: 39.8 µM [activator, single point] | 
Cn1cc(-c2cc3n(n2)CCC(=O)N3CCCC(=O)Nc2ccc(Cl)cc2)c2ccccc21 | inconclusive: 3.16 µM [activator, single point] | 
CC(C)c1ccc(OCC(=O)Nc2ccc(S(=O)(=O)Nc3ncccn3)cc2)cc1 | inconclusive: 39.8 µM [inhibitor, single point] | 
COc1ccc(CNC(=O)c2cc3c(=O)n(Cc4ccco4)ccc3nc2C)c(OC)c1 | inconclusive: 31.6 µM [activator, single point] | 
CC(=O)N1CCCc2cc(S(=O)(=O)N(C)CC(=O)Nc3ccc(C(C)C)cc3)ccc21 | inconclusive: 39.8 µM [activator, single point] | 
Cc1ccc(-c2csc(N/N=C/C=C/c3ccccc3)n2)cc1 | inconclusive: 3.16 µM [inhibitor, full curve] | 
O=C(/C=C/c1ccc2c(c1)OCO2)Nc1nc(-c2ccc(F)cc2F)cs1 | active: 7.94 µM | 
COC(=O)c1ccc(CSc2nc3ccc(Cl)cc3[nH]2)o1 |  | inactive: -7.6%
CC12CCC(C(=O)Nc3cc(Cl)ccc3Cl)(C/C1=N\O)C2(C)C (stereo not drawn) |  | inactive: 15%
CC1=CC(C)(C)N2C(=O)C3(C(C#N)=C(N)OC4=C3C(=O)CC(C)(C)C4)c3cc(C)cc1c32 (stereo not drawn) | inconclusive: 31.6 µM [activator, single point] | 
C=CCn1cc(C(=O)N2CCc3ccccc3C2)c(=O)c2cc(S(=O)(=O)N(CC)CC)ccc21 | inconclusive: 31.6 µM [activator, single point] | 
COCCN(CCOC)c1ncc(Cl)c(C(=O)c2c(C)cc3ccccn23)n1 | inconclusive: 39.8 µM [activator, single point] | 
Cc1ccc2c(CN3C(=O)NC4(CCCCC4)C3=O)cc(=O)oc2c1C | inconclusive: 25.1 µM [inhibitor, partial curve] | 
COC(=O)c1ccc(C23CC4(C2)[C@H](CN(Cc2ccc(-c5ccccc5)cc2)[C@@H]4c2ccccc2)C3c2ccc(C(F)(F)F)cc2)cc1 (stereo partly drawn) | inconclusive: 31.6 µM [inhibitor, single point] | 
O=C(c1ccccc1Cl)n1nc(-c2ccco2)nc1NCc1cccs1 |  | inactive: 5.31%

SMILES | Potency | max response, negative = inhibition
COc1ccc(-c2[nH]c(-c3ccc(Cl)cc3)nc2SCC(=O)Nc2nccs2)cc1 | inconclusive: 39.8 µM [inhibitor, single point] | 
Cc1ccccc1NC(=O)c1cc(C(=O)c2cc(Cl)ccc2O)cn(-c2ccccc2C)c1=O | active: 7.94 µM | 
Cc1cc(N2CCOCC2)n2nc(C)c(-c3ccccc3)c2n1 | inconclusive: 25.1 µM [activator, single point] | 
Cc1cccc(CNC(=O)c2cnc3c(-c4cccc(C)c4)c(C)nn3c2C)c1 |  | inactive: -1.25%
O=C(Cn1c(=O)n(Cc2ccc(C(=O)NCc3ccccc3Cl)cc2)c(=O)c2ccccc21)Nc1ccc(F)cc1 | active: 12.6 µM | 
Cc1ccc(NC(=O)CCc2nc3cccnc3n2-c2ccccc2)cc1 |  | inactive: -5.49%
Cc1cc(C)c2oc(-c3ccc(NC(=O)c4cc(Br)ccc4Cl)cc3)nc2c1 | active: 2.51 µM | 
COc1ccc(N2CCN(c3nc4c(c(=O)n(C)c(=O)n4C)n3CCCc3ccccc3)CC2)cc1 | inconclusive: 31.6 µM [activator, single point] | 
CCCC(C(=O)NC1CCCC1)N(C(=O)Cn1nnc(-c2ccc(C)o2)n1)C1CCCC1 (stereo not drawn) | inconclusive: 39.8 µM [activator, single point] | 
COc1ccccc1Cc1nc2ccccc2nc1SCC(=O)NCc1ccc(F)cc1 |  | inactive: -10.5%
Cc1ccc(-c2csc(NC(=O)c3cccs3)n2)cc1 |  | inactive: 7.26%
COc1ccc(OCC(=O)N2CCN(c3cccc(C(F)(F)F)c3)CC2)cc1 | inconclusive: 39.8 µM [activator, single point] | 
COc1cc(NC(=O)Cn2c(C)cc(C)c(C#N)c2=O)cc(OC)c1 |  | inactive: -1.3%
CCOP(=O)(c1ccccc1)c1nc(-c2ccc(F)cc2)oc1N1CCCCC1 (stereo not drawn) | inconclusive: 31.6 µM [activator, single point] | 
COc1ccc(CNC(=O)CCCCCn2c(=O)[nH]c3ccccc3c2=O)cc1 |  | inactive: -9.05%
COc1ccc(-c2noc(C(C)n3nc(C)c([N+](=O)[O-])c3C)n2)cc1OC (stereo not drawn) | inconclusive: 39.8 µM [activator, single point] | 
COc1cc(NC(=O)C2CCCN(S(=O)(=O)c3ccc4c(c3)oc(=O)n4C)C2)cc(OC)c1 (stereo not drawn) | inconclusive: 31.6 µM [activator, single point] | 
Cc1ccc(CNc2ccc(-c3nc(-c4cccnc4)no3)cc2[N+](=O)[O-])cc1 | inconclusive: 39.8 µM [inhibitor, single point] | 
Cc1cc(C)cc(Oc2nc3c(C)cccn3c(=O)c2/C=C(\C#N)C(=O)NC2CCS(=O)(=O)C2)c1 (stereo not drawn) | inconclusive: 20 µM [activator, partial curve] | 
COc1ccccc1NC(=O)Cn1c(=O)n(-c2ccccc2Cl)c(=O)c2sc3ccccc3c21 | inconclusive: 39.8 µM [inhibitor, single point] | 
O=C(CSc1nc2ccccc2c(=O)n1-c1ccccc1F)Nc1ccc2c(c1)CCC2 | inconclusive: 25.1 µM [inhibitor, single point] | 

SMILES | Potency | max response, negative = inhibition
CCc1cccc(NC(=O)Cn2c(C(=O)OC)cc3occc32)c1 | inconclusive: 39.8 µM [inhibitor, single point] | 
O=C(CN1CCN(c2nc(-c3ccccc3)cs2)CC1)Nc1ccc2c(c1)OCO2 | active: 25.1 µM | 
COc1ccc(-c2noc(-c3ccccc3OCC(=O)Nc3ccc(C(C)=O)cc3)n2)cc1 |  | inactive: -5.1%
O=c1c2ccccc2nc(/C=C/c2ccc([N+](=O)[O-])cc2)n1CCCO | inconclusive: 20 µM [activator, single point] | 
CCOC(=O)N1CCN(C(=O)c2ccc3c(=O)n(Cc4ccccc4OC)c(=S)[nH]c3c2)CC1 | inconclusive: 31.6 µM [activator, single point] | 
COc1ccc(C2C=C(c3ccc(C)cc3)Nc3c(C(=O)Nc4ccccc4)cnn32)cc1 (stereo not drawn) | inconclusive: 3.98 µM [inhibitor, single point] | 
CCOC(=O)Cn1c(=O)c2c(nc(N3CCCCC3)n2Cc2ccccc2)n(C)c1=O | inconclusive: 31.6 µM [activator, partial curve] | 
Cc1ccc(C)c(NC(=O)c2cc(S(=O)(=O)N3CCc4ccccc4C3)ccc2F)c1 |  | inactive: -2.99%
O=c1c2ccccc2nc(SCc2nc3ccccc3s2)n1Cc1ccco1 | inconclusive: 39.8 µM [inhibitor, single point] | 
Cc1cc(C(=O)NCC(=O)OC(C(=O)Nc2cc(C(F)(F)F)ccc2Cl)c2ccccc2)ccc1[N+](=O)[O-] (stereo not drawn) | active: 31.6 µM | 
O=S(=O)(c1ccc(F)cc1)n1ccc(-c2cccc(OCc3c(F)cccc3Cl)c2)n1 |  | inactive: -11.6%
COc1ccc(C[C@@H]2C(=O)N[C@H](C)C(=O)N(C)[C@@H]3C(=O)N(C)[C@@H](Cc4ccc(O)c(c4)Oc4ccc(cc4)[C@H]3O)C(=O)N[C@@H](C)C(=O)N[C@H](C)C(=O)N2C)cc1 | inconclusive: 6.31 µM [activator, single point] | 
COc1cccc(-n2c(SCC(=O)Nc3ccc4c(c3)CCC4)nc3ccccc3c2=O)c1 | inconclusive: 15.8 µM [inhibitor, single point] | 
CCC(=O)N1c2ccccc2CC1C(=O)NCCCN1CCN(c2ccccc2)CC1 (stereo not drawn) |  | inactive: 3.15%
Cc1ccc(Cc2nnc3n(-c4ccccc4)nc(C(=O)c4ccccc4)n3c2=O)cc1 | active: 25.1 µM | 
CCOc1ccc(NC(=O)c2cccc(N3CCCS3(=O)=O)c2)cc1 |  | inactive: 5.2%
Cc1ccc(C)c(N2CCN(C(=O)CN3C(=O)COc4ccc(S(=O)(=O)N5CCOCC5)cc43)CC2)c1 | inconclusive: 6.31 µM [activator, single point] | 
CCCCC(=O)Nc1nnc(S(=O)(=O)N2CCCCCC2)s1 |  | inactive: 0.856%
Cc1[nH]nc2c1C1(C(=O)Nc3ccc([N+](=O)[O-])cc31)C(C#N)=C(N)O2 (stereo not drawn) |  | inactive: -19.2%
CCCCCCC(=O)Nc1nc(C)c(-c2csc(Nc3cc(Cl)ccc3OC)n2)s1 | active: 3.16 µM | 
COc1ccc(C2c3cc(OC)c(OC)cc3Cc3c4cc(OC)c(OC)cc4cc[n+]32)cc1OC (stereo not drawn) |  | inactive: -8.1%
